The campaign covered roughly 310,000 compounds. About 2,200 (0.71%) showed an effect of 50% or more. Effects have a minus sign here. Some of the results follow.
target: human ether-à-go-go-related gene (hERG) potassium channel (human, UniProt Q12809); assay: primary screen, population patch clamp on CHO cells stably expressing hERG
Sequence (Q12809 whole entry, looked up): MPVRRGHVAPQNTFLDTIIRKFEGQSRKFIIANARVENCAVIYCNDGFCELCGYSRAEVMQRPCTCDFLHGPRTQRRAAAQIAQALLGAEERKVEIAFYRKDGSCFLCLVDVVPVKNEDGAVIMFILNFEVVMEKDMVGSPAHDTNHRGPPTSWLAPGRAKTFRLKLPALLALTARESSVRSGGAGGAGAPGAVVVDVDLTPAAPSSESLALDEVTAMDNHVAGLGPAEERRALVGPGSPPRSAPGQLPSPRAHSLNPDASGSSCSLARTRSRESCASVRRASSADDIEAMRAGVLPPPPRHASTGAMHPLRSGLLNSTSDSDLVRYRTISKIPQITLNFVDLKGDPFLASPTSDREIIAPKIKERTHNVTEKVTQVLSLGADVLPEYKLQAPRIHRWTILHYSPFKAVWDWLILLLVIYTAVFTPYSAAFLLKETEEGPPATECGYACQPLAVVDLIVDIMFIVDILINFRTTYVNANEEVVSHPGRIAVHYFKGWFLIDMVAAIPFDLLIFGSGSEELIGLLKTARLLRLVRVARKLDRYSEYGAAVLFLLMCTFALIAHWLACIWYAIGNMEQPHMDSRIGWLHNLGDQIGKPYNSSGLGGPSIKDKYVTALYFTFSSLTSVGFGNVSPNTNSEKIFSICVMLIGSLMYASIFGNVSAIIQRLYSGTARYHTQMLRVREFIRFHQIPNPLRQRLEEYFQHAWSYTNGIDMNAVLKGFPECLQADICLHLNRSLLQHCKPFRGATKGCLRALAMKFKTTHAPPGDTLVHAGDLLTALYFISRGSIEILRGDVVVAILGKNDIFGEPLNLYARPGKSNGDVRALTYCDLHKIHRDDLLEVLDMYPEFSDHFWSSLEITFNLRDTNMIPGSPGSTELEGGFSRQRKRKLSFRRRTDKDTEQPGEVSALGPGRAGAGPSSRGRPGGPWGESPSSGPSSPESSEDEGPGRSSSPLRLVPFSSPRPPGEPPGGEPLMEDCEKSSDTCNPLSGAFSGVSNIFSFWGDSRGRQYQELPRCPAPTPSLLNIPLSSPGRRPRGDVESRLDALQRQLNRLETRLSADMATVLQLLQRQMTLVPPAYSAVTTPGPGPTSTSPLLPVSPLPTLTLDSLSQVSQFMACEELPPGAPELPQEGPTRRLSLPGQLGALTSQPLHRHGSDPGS

Row | SMILES | hERG current change (%, negative = inhibition) at 1uM [%]
1 | CN(CC(=O)N1CCN(c2cccc(Cl)c2)CC1)S(=O)(=O)c1cccs1 | 0.526
2 | Cc1cccc2c1N1C(=O)c3c(C(=O)O)cccc3C1CC2C (centres unmarked) | 2.23
3 | Cc1cc(OC(C)C(=O)Nc2cccnc2)ccc1Cl (centres unmarked) | 9.07
4 | O=C(NC1CCCC1)c1ccccc1-c1ccccc1 | 9.04
5 | CCCC(C)C1(CC)C(=O)NC(=Nc2ccccc2)NC1=O (centres unmarked) | 9.31
6 | COc1ccccc1NC(=O)CN(C)S(=O)(=O)c1cc(C)ccc1OC | 3.45
7 | Cl.OCCNCc1cccc(OCc2ccc(Cl)cc2)c1 | 7.79
8 | COc1ccc(/C(C)=N/NC(=O)CNC(=O)COc2ccccc2)c(OC)c1 | 14.6
9 | COc1ccc(/C=N/NC2=NS(=O)(=O)c3ccccc32)cc1 | 11.9
10 | CCCN(C(=O)Cc1c(C(=O)O)n(C)c2ccccc12)c1cccc(C)c1 | 16
11 | Cc1ccc(S(=O)(=O)N(C)C)cc1NC(=S)N1CCCCC1CO (centres unmarked) | 6.21
12 | COc1ccc(OC)c(CN2CCN(C(=O)CNC(=O)c3cc(C)cc(C)c3)CC2)c1 | -10
13 | CC1CCCN(C(=O)C2CCN(c3nc(-c4ccccc4)nc4c3CCC4)CC2)C1 (centres unmarked) | -0.788
14 | CN(C(=O)C1CCC(=O)N(Cc2cccc(F)c2)C1)C1CCCCC1 (centres unmarked) | 3.07
15 | Cc1csc(NC(=O)c2cc(=O)[nH]c3ccc(S(=O)(=O)N4CCOCC4)cc23)n1 | 1.48
16 | Cc1ccc(NC(=O)CC(C)CC(=O)NCc2ccccc2)cc1Cl (centres unmarked) | 9.95
17 | O=C(Nc1ccnn1C1CCN(C/C=C/c2ccccc2)CC1)c1ccccc1 | -64.4
18 | CSc1nnc(CNS(=O)(=O)c2ccc(F)cc2)n1C | 16.4
19 | Cc1ccnc(NC(=O)CCC(=O)N(CC(=O)NCCc2ccccc2)c2ccccc2F)c1 | 16.6
20 | CCCCCCCCCC(=O)N[C@H](CN1CCOCC1)[C@H](O)c1ccccc1.Cl | 6.51
21 | C=CCSc1nnc(NC(=O)c2ccc(NC(C)=O)cc2)s1 | 11.7
22 | CC(NC(=O)c1ccc(Br)o1)C1CC2CCC1C2 (centres unmarked) | 11

Row | SMILES | hERG current change (%, negative = inhibition) at 1uM [%]
23 | Nc1nonc1-c1nc2ccccc2n1Cc1ccc(F)cc1 | -0.308
24 | COc1ccc(N2CCN(C(=O)c3cccn4c(=O)c5ccccc5nc34)CC2)cc1 | -5.47
25 | Cc1ccccc1N1CCN(CCCOc2ccc3c(C)cc(=O)oc3c2)CC1 | -56.2
26 | COc1ccc(-c2csc(Nc3ncccn3)n2)cc1C | 13
27 | CCc1ccc(NC(=S)NCC2CCCN2CC)cc1 (centres unmarked) | 1.35
28 | COCCN1CC(=O)N(c2cccc(C)c2C)C(c2ccc(Cl)cc2)C1=O (centres unmarked) | 3.01
29 | Cc1ccc(C)c(NCCC#N)c1 | 11.4
30 | O=C(CCc1nc2ccccc2c(=O)[nH]1)NCCN1C(=O)S/C(=C\c2ccc(Cl)cc2Cl)C1=O | 13.9
31 | Cc1cccc(C)c1OC(=O)Cc1ccccc1 | 12.6
32 | C=CCN1c2ccccc2[C@]23C[C@@H](C(=O)OC)N=C2NC(C(=O)OC)=C(C(=O)OC)[C@H]13 | 1.34
33 | CCOC(=O)N/N=C\c1cccc(OC)c1OC/C=C/c1ccccc1 | 1.24
34 | COC(=O)c1ccc(NC(=O)CSc2nc3ccc(N4C(=O)C5C6C=CC(C6)C5C4=O)cc3s2)cc1 (centres unmarked) | 10.4
35 | COc1cc(OC)cc(-c2cc3nc(C)c(CCC(=O)NC(C)CCc4ccco4)c(C)n3n2)c1 (centres unmarked) | -11.2
36 | COc1ccc(-n2ncc3c(=O)n(CC(=O)N4CCCc5ccccc54)cnc32)cc1 | 3.45
37 | CN=C(Nc1cc(C)nn1-c1ccccc1)c1ccc(F)cc1 | -4.19
38 | CCN1C(=O)C(CC(=O)Nc2cccc(C(C)=O)c2)S/C1=N\c1ccccn1 (centres unmarked) | 18.6
39 | Cn1c(SCc2cccc([N+](=O)[O-])c2)nc2c(c1=O)SCC2 | 3.35
40 | CC(C)CNC(=O)CC(=O)N/N=C/c1ccc(Br)cc1 | 11.7
41 | CN(c1ccc(C(=O)N2CCOCC2)cc1)S(=O)(=O)c1ccc(Cl)cc1 | -3.14
42 | CCn1cc(C(=O)Nc2ccccc2)c(=O)c2ccc(C)nc21 | 15.8
43 | O=C(NCc1ccccn1)c1cc2cc(Br)ccc2oc1=O | 8.75
44 | Cn1c(Cn2c(C(F)(F)F)nc3ccccc32)nc2ccccc21 | -5.06

Reference: PMC4336329 (PLoS ONE, 2015)
